T1: UNK ZnF1-3 (human, UniProt Q9C0B0 31-174)
T1 sequence: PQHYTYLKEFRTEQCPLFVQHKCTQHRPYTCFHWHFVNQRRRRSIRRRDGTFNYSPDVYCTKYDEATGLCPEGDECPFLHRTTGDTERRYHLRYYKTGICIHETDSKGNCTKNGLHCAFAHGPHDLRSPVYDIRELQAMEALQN

B1: chr8:80577206:80577207:+_ENSG00000104435_ENST00000220876|hu_mus|FALSE|FALSE (ssRNA)
RNA: GGGAGUUCUACAGUCCGACGAUCUUUAUUUUAUUUUUGAUUCUGUUUUUUGUUUUGUUUUUCAUAAUGAGUUCUUUUUAAACCAUGUCAUACACUUCCCAUACUGAUAUCGCAUGAUCCAUUAUAAUAUAGGCAGGGGGAUUUCAACAGAGGAUUGAGCAUCA
B2: chr2:20889081:20889082:-_ENSMUSG00000036591_ENSMUST00000173194|mus_mus|FALSE|FALSE (ssRNA)
RNA: GGGAGUUCUACAGUCCGACGAUCUGUGGCCAUCAUUUCAUUUCAAAUUGUAAAGGGACAAAUCCUUUGGAGUCCACAUUGGAGAAGUGCCACCACACACCAAACGGGAAGCAAUUCCACAGCAGAUUCUGAGGCGAUGAAGGACAACAGAGGAUUGAGCAUCA
B3: chr1:111660612:111660613:-_ENSG00000156171_ENST00000539140|hu_hu|FALSE|FALSE (ssRNA)
RNA: GGGAGUUCUACAGUCCGACGAUCAAAGUAUAGGCAUAGGUGUUUUUAAUAGUCUUCUUGAUGAUAUCCUUUAGAAUAAUCUAUCAAAUGGCUUCUUUCAUGUUUCCUGAUUAUCAGCAUUCAUCAGUGUUACUGUCAGCCUUGCAACAGAGGAUUGAGCAUCA
B4: chr2:216981417:216981418:+_ENSG00000079246_ENST00000392132|hu_hu|hu_hu_hu_mus_True|58_88 (ssRNA)
RNA: GGGAGUUCUACAGUCCGACGAUCCUGAUACUGGUCCUUGCCAGCAAGGGGAUUGUCAGUGCCAUCUGUGCCAUAGAGGACUAAAGCAAUCUCAUCUUUGCUCUCCGAAAAUACCUGUCGUUGGACAAACAUAGUCAUCACUUUCAACAGAGGAUUGAGCAUCA
B5: chr1:163112212:163112213:-_ENSG00000143248_ENST00000313961|hu_hu|hu_hu_hu_mus_False|28_68 (ssRNA)
RNA: GGGAGUUCUACAGUCCGACGAUCUUUUAUUAUCAGUAAGAGUGAGUUACAUACUAGGCAAAGUAUUGAAUACAAAAAUCAGGAAACAAACACUAUUGGUCCAGAAUUUAAAAUAUAAUGAGCGAAGUGCUGGCACAGGACUUACAACAGAGGAUUGAGCAUCA
B6: chr9:119834795:119834796:+_ENSMUSG00000032512_ENSMUST00000036561|mus_mus|FALSE|FALSE (ssRNA)
RNA: GGGAGUUCUACAGUCCGACGAUCCAAACAUGAACCACAAUAUAAAUAUCAAACCAACUCACUGUGAGAUCUUUUUACUCUAGUAACAUAAACUUUAGGUAGCAUCUGAAUGAAACUGCAACUUCAGCAUGGCCGUAAGUUCUGCAACAGAGGAUUGAGCAUCA

This passage reports binding signal results from PMC12136788.

This is one part of the list.

This assay deals with T1, UNK ZnF1-3. The assay can be described thus: nsRBNS (natural sequence RNA bind-n-seq); RBNS binding buffer (assumed for nsRBNS): 25 mM Tris pH 7.5, 150 mM KCl, 3 mM MgCl2, 0.01% Triton X-100, 500 ug/ml BSA, 20 U/ml SUPERase-In, 4 C; UNK is unkempt and MSI1 is Musashi-1; names of the RNAs are library labels; protein concentration not given here; high values mean tight binding.
In turn, B1 returned a binding signal of 0.946 enrichment R. For the molecule B2, the binding signal came out at 1.7 enrichment R. The molecule B3 had a binding signal of 0.777 enrichment R. As for B4, the figure is 1.35 enrichment R. To B5 belongs 1.73 enrichment R. Molecule B6 gave a binding signal of 1.1 enrichment R.
